Laboratory results reported in the supplement of paper PMC12217912.
The other results are listed elsewhere or left out. Sequences were assembled here from the parent chain. Values near 0.05 are background.

B1: TEV protease; numbered along this chain (parent)
chain: MGESLFKGPRDYNPISSSICHLTNESDGHTTSLYGIGFGPFIITNKHLFRRNNGTLVVQSLHGVFKVKDTTTLQQHLVDGRDMIIIRMPKDFPPFPQKLKFREPQREERICLVTTNFQTKSMSSMVSDTSCTFPSGDGIFWKHWIQTKDGQCGSPLVSTRDGFIVGIHSASNFTNTNNYFTSVPKNFMELLTNQEAQQWVSGWRLNADSVLWGGHKVFMVKPEEPFQPVKEATQL

Variants of: B1
Experiment: raw area under fraction-flipped curve 0-4 h after induction (AUC4h, not background-subtracted), DNA-recorder readout of cleavage of the substrate (dimensionless); higher = more cleavage of the substrate by the protease variant
Conditions: temperature: 34 °C; time window: 0-4 h after rhamnose induction
Experimental: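 In vivo DNA recorder in E. coli TOP10(DE3) ΔrhaA at 34 °C. Each TEVp single-site mutant (parent TEVp 0) is paired with a single-site variant of the 7-mer TEVs (canonical ENLYFQ|S). The substrate sits between flexible linkers in a Bxb1-sfGFP-TEVs-SsrA fusion, so cleavage stabilises Bxb1 and speeds flipping of a recombination array, read by NGS. The value is the raw area under the fraction-flipped curve over 0-4 h after rhamnose induction (AUC4h), with ≥20 reads per time point. It is not background-subtracted; inactive controls average about 0.047.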
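Further: Bxb1 expression induced with 0.2% (w/v) L-rhamnose at OD600 near 0.5, cultures sampled hourly, flipped fraction per protease–substrate barcode pair counted by paired-end Illumina sequencing.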

Variant	area with substrate DNLYFQS	area with substrate KNLYFQS	area with substrate MNLYFQS	area with substrate NNLYFQS	area with substrate PNLYFQS	area with substrate TNLYFQS	area with substrate WNLYFQS	area with substrate YNLYFQS	area with substrate GNLYFQS	area with substrate HNLYFQS	area with substrate LNLYFQS	area with substrate SNLYFQS	area with substrate FNLYFQS	area with substrate INLYFQS	area with substrate VNLYFQS	area with substrate QNLYFQS	area with substrate RNLYFQS
V183S	0.0715	0.0585	0.0661	0.0599	0.0626	0.0325	0.0485	0.0475	–	–	–	–	–	–	–	–	–
I167H	0.0543	0.0497	0.0311	–	–	0.0554	0.05	–	0.0507	0.0613	0.0319	0.0573	–	–	–	–	–
I167N	0.0504	–	–	–	0.0526	0.0988	–	0.0436	–	0.058	0.0567	0.0452	0.0555	0.0413	0.0498	–	–
H215N	0.0512	–	–	0.0504	0.0492	0.0634	0.0597	0.056	–	0.0525	0.0517	0.0542	–	0.0494	–	0.0579	–
H215M	0.0747	0.0631	–	–	0.0353	–	0.0628	–	–	0.0669	0.0605	0.0578	–	–	–	–	0.0525
W199M	0.0416	0.0505	0.0513	0.0701	0.0487	0.0625	0.0455	0.057	0.063	–	0.0515	0.0547	–	0.0551	–	0.0661	–
Q194M	0.0783	0.0996	–	0.0681	0.071	–	–	–	0.0702	–	–	0.0639	–	0.0707	–	0.0687	–
Q194V	0.0777	0.0717	–	0.0697	0.0708	–	0.049	–	–	0.0596	0.0574	0.0693	0.0697	0.0829	0.061	–	–
Q194K	0.0699	0.0616	0.0689	0.065	0.0721	0.0737	0.0611	0.0613	–	0.0704	0.0678	0.0734	0.0382	–	–	0.0758	0.0648
M188D	0.0676	0.0585	0.0616	0.0695	0.0278	0.0682	0.0534	–	0.0528	0.0728	–	0.0571	0.0631	0.0611	–	–	0.0747
Q197P	0.0809	–	0.0725	0.0661	0.0676	–	0.0659	–	–	0.0679	0.0719	0.0704	0.067	–	–	–	–
Q197S	0.0773	–	–	–	–	0.0746	0.0559	0.0593	–	0.0662	0.0565	0.0741	–	0.0548	0.0654	0.0755	0.0579
W203L	0.0324	–	–	–	0.0594	0.0614	–	–	0.0666	–	0.0556	0.0575	–	0.0678	0.0612	–	–
N175V	0.0527	–	0.0377	0.0594	0.0527	0.0629	0.06	0.118	–	0.0402	–	–	0.0596	0.047	–	–	0.0595
K216W	0.0741	–	–	–	–	0.0681	0.0671	–	0.0676	0.062	0.0679	0.0421	0.0742	–	–	–	–
S182Q	0.0535	–	0.0133	0.0522	0.0701	0.0566	0.0572	0.0453	0.0518	0.0452	0.0604	–	–	–	0.0571	–	–

Variant	area with substrate DNLYFQS	area with substrate KNLYFQS	area with substrate MNLYFQS	area with substrate NNLYFQS	area with substrate PNLYFQS	area with substrate TNLYFQS	area with substrate WNLYFQS	area with substrate YNLYFQS	area with substrate GNLYFQS	area with substrate HNLYFQS	area with substrate LNLYFQS	area with substrate SNLYFQS	area with substrate FNLYFQS	area with substrate INLYFQS	area with substrate VNLYFQS	area with substrate QNLYFQS	area with substrate RNLYFQS
F187L	0.0592	–	–	0.0735	0.0768	0.057	0.0421	0.0531	–	0.0602	–	0.0615	–	–	–	–	–
F187W	0.0613	0.0771	0.0626	0.0711	0.062	0.0582	0.0619	0.0592	0.0471	0.0519	0.0109	0.0522	0.0576	0.0497	–	–	0.061
A207D	0.0775	–	0.0573	0.0511	0.0736	0.0618	0.0587	–	0.0749	0.0592	0.0614	0.0605	–	–	–	–	0.0667
V220Y	0.0717	0.0914	–	0.0795	0.0647	0.077	0.0613	0.066	–	0.0661	0.073	0.064	0.0669	–	0.0514	0.0569	–
V220L	0.0573	0.0601	0.0597	–	0.0605	0.0654	0.0507	–	0.0746	0.0661	0.0729	0.0435	0.0605	0.0351	0.0536	0.0594	–
F173G	0.07	0.069	0.0668	–	0.0643	–	0.0742	–	–	0.0502	–	–	–	0.0639	–	–	–
F173Q	0.0644	0.0635	–	–	0.076	–	0.0545	–	–	–	–	–	–	–	–	–	0.0582
F173W	0.0837	0.0532	–	0.0502	0.0626	0.0612	0.0527	0.0508	0.0592	0.072	–	–	0.0779	0.0612	0.0524	0.0744	–
L205R	0.0645	–	–	0.0582	–	0.0457	0.0586	0.0474	–	–	0.0475	0.0589	–	0.0655	–	–	0.0412
S169G	0.0523	0.0632	0.0691	–	0.0636	0.064	0.0585	0.0559	–	0.057	0.0565	0.0568	0.0627	0.0514	–	–	–
S169Q	0.0562	0.07	0.0704	0.0499	0.0578	0.0581	0.0566	0.065	0.0557	0.0575	0.0646	0.0662	0.0555	0.0676	0.0525	–	–
N193W	0.0659	0.0583	0.0505	–	0.0605	0.0537	0.052	0.0612	–	–	0.0692	–	–	–	–	–	–
K221C	0.063	0.0644	0.0718	–	0.0515	0.0564	0.055	0.0607	0.0549	0.0567	0.058	0.0626	0.0891	–	–	0.0588	0.0592
K221H	0.0685	0.0551	0.059	0.0491	–	0.0586	0.0508	0.0483	–	–	0.0687	0.059	–	0.101	0.0625	–	0.068
K221M	0.0537	0.0663	0.0608	–	–	0.0582	0.0598	0.043	0.0783	0.0561	–	0.0621	0.0792	0.0628	0.058	–	–
